Measured values: PubChem BioAssay AID1347120 (National Center for Advancing Translational Sciences (NCATS), 2019)
The whole screen tested about 390,000 compounds, of which about 930 (0.24%) were called active. The inconclusive results got no clear call from the source; some entries with a clear call stand among them for comparison. The call rests on the fitted dose curve; in most records, active means well fitted activation curve with a large enough effect; inconclusive means small, poorly fitted or top-dose-only effect; inactive means no such curve, though single readings can be large or run the other way. A potency beside an inconclusive call is a rough fit, not a confirmed value.
Potency means the concentration at half of the fitted maximal effect; tags describe the fitted curve by direction and shape.

Assay: qHTS for Suppressors of FUS Proteinopathy: Primary screen using FUS-linked yeast assay; further: nearly all actives have a fitted effect of over 55% in size;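 on growth rescue (activation): plate controls were DMSO vehicle for no effect and reference control for full effect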
Settings: S. cerevisiae FUS-expressing, OD600, 24 h; Potency: growth rescue; growth rescue (activation): at 76.6 µM (top of the series)
Summary of the method: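 Galactose (2%) drives FUS expression in yeast precultured in raffinose; seeding density OD 0.005. Test compounds incubated 24hr at 30C and 99% humidity before absorbance at 600 nm was measured.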
With `COc1cccc(N2CCN(c3ccc4nnc(CCC(=O)Nc5ccccc5OC)n4n3)CC2)c1` the Potency was inconclusive: 25.1 µM [activator, single point].
In the case of `CCCN(CC(=O)Nc1ccccc1C)C(=O)CCCOc1ccc(Br)cc1`, the Potency is reported as inconclusive: 25.1 µM [activator, single point].
For `CC(=O)OC1[C@H](Oc2c(O)c(C)c3c4c2[C@@H](C)CC[C@@H]4[C@@H](C)C[C@@H]3C=C(C)C)OC[C@@H](O)[C@@H]1O` (some centres not stated), the Potency was inconclusive: 44.7 µM [activator, single point].
In the case of `COc1cccc(NC(=S)/C(=C(\[O-])c2cc(C)n(-c3ccccc3F)c2C)[n+]2ccc(N(C)C)cc2)c1`, the Potency is reported as inconclusive: 50.1 µM [activator, single point].
With `CC1(C)Cc2c(C#N)c(N3CCOCC3)nc(-c3ccccc3)c2CO1` the Potency was “inactive”.
For `Cc1cccc(-c2c3c(=O)n(C)c(=O)n(C)c3cn2-c2ccccc2O)c1`, the Potency was inconclusive: 50.1 µM [activator, single point].
In the case of `CCOC(=O)C1=C(C)NC(C)=C(C(=O)OCC)C1C(=O)OCC(=O)NCc1ccccc1OC`, the Potency is reported as “inactive”.
For `CCNc1sc(C(=O)c2cccs2)c(N)c1C#N`, the Potency was inconclusive: 50.1 µM [activator, single point].
For `O=C(CNc1ccccc1)Nc1ccc(F)cc1`, the Potency was inconclusive: 14.1 µM [activator, partial curve, poor fit].
With `COc1ccc(C2=CC(=O)CC(c3ccc(OC)cc3)C2)cc1` (configuration not stated) the Potency was “inactive”.
For `C=Cc1ccc(Cn2nc(-c3ccc(C)c(S(=O)(=O)N(CC)CC)c3)ccc2=O)cc1`, the Potency was inconclusive: 31.6 µM [activator, single point].
In the case of `Cc1ccc(S(=O)(=O)N2[C@@H](c3ccc(Br)cc3)C(C(=O)O)=CC[C@H]2c2cccc(Cl)c2)cc1`, the Potency is reported as inconclusive: 25.1 µM [activator, single point].
In the case of `CCC(C)Sc1nnc(CNC(=O)C23CC4CC(CC(C4)C2)C3)n1C1CCCCC1` (configuration not stated), the Potency is reported as inconclusive: 17.8 µM [activator, partial curve].
With `COC(=O)CCC(C)C1CCC2C3C(OC(C)=O)CC4CC(O)CCC4(C)C3CC(O)C12C` (configuration not stated) the Potency was inconclusive: 20 µM [activator, single point].
In the case of `O=C(CN1C(=O)c2cccc3cccc1c23)N1CCN(c2ccccc2)CC1`, the growth rescue (activation) is reported as inconclusive: 80.8% [activator].
With `CCOc1ccc(C(=O)O[C@H]2[C@H](Cc3ccccc3)NS(=O)(=O)[C@H]3C[C@@H]4C=C[C@]23O4)cc1` the Potency was inconclusive: 28.2 µM [activator, single point].
With `CCCN(CC(=O)Nc1ccccc1OC)C(=O)c1ccc(COc2ccccc2)o1` the Potency was inconclusive: 11.2 µM [activator, partial curve, poor fit].
In the case of `O=C(O)CSc1c2c(nc3cc(C(=O)Nc4ccc(F)c(Cl)c4)ccc13)CCC2`, the Potency is reported as “inactive”.
For `O=C(O)C1CSC2(c3ccc(Br)cc3)CCC(=O)N12` (configuration not stated), the Potency was “inactive”.
With `Nc1ccc2c(c1)C(=O)c1ccc(Cl)cc1-2` the Potency was “inactive”.
In the case of `CC(C)(C)c1cc(NC(=O)C2(C)CCN2C(=O)c2ccccc2CCc2ccccc2)no1` (configuration not stated), the Potency is reported as inconclusive: 44.7 µM [activator, single point].
In the case of `COc1cccc(C(=O)N2c3cc(C)ccc3C(C)(c3ccccc3)CC2(C)C)c1` (configuration not stated), the Potency is reported as inconclusive: 50.1 µM [activator, single point].
For `COc1cc(CNc2ccc(N3CCCC3)cc2)ccc1OCc1ccccc1`, the Potency was inconclusive: 20 µM [activator, partial curve].
In the case of `C[C@H]1CCCCO[C@H](CN(C)C(=O)Nc2ccc(F)cc2)[C@@H](C)CN([C@@H](C)CO)C(=O)c2cc(NC(=O)Nc3ccc4c(c3)OCO4)ccc2O1`, the Potency is reported as inconclusive: 28.2 µM [activator, single point].
For `COc1ccc(CCNC(=O)c2ccc(CNc3nc(=S)[nH]c4ccccc34)cc2)cc1OC`, the Potency was “inactive”.
With `CCC(C(=O)OCC(=O)Nc1ccc(Cl)c(S(=O)(=O)N(C)C)c1)c1ccccc1` (configuration not stated) the Potency was inconclusive: 1 µM [activator, full curve, poor fit].
For `CC(C)(C)NC(=O)C(c1ccc(-c2ccccc2)cc1)n1c(=O)c(-c2cc3ccccc3[nH]2)nc2ccccc21` (configuration not stated), the Potency was “inactive”.
With `O=C(NC(=S)Nc1ccc(S(=O)(=O)NC2CCCCC2)cc1)c1cccs1` the Potency was inconclusive: 14.1 µM [activator, partial curve].
In the case of `COc1ccc(CNCc2cn(-c3cccc(F)c3)nc2-c2ccc(C)o2)cc1`, the Potency is reported as inconclusive: 2 µM [activator, full curve, poor fit].
With `Cc1cccc(-c2ccc3[nH]c4c(c3c2)CCN2C[C@@H]([C@H](C)OC(=O)Nc3ccccc3C)[C@@H](N(C)C(=O)Nc3ccccc3C)C[C@@H]42)c1` the Potency was inconclusive: 44.7 µM [activator, single point].
For `Cc1ccc(NC(=O)c2c(C)oc3ccc(O)c(CN4CCCCCC4)c23)c(C)c1`, the Potency was “inactive”.
For `COc1ccc(C(=O)/C=C/C(=O)N(CC(=O)NC2CCCCC2)Cc2cccs2)c(O)c1`, the Potency was inconclusive: 50.1 µM [activator, single point].
With `Cc1cccc(C)c1Nc1sc(C(=O)c2ccccc2)c(N)c1C(=O)Nc1ccc(F)cc1` the Potency was inconclusive: 25.1 µM [activator, single point].
In the case of `CCOc1ccccc1NC(=O)Cn1c(=O)n(Cc2ccccc2)c(=O)c2c(C)c(C)sc21`, the Potency is reported as “inactive”.
With `O=C(Nc1nc2ccc(S(=O)(=O)N3CCCCC3)cc2s1)c1cccnc1` the Potency was inconclusive: 31.6 µM [activator, partial curve, poor fit].
In the case of `COc1cc(NC(=O)Cn2c(=O)oc3cc(S(=O)(=O)N4CCCCCC4)ccc32)cc(OC)c1`, the Potency is reported as inconclusive: 15.8 µM [activator, partial curve].
In the case of `C/C(=N/NC(=O)CNC(=O)/C=C/c1ccco1)c1ccc(Cl)cc1`, the Potency is reported as inconclusive: 35.5 µM [activator, single point].
With `COc1ccc(CC(=O)Nc2cc(S(=O)(=O)Nc3ccc(OC)cc3)ccc2OC)cc1` the Potency was inconclusive: 31.6 µM [activator, single point].
In the case of `CCOc1ccccc1N1C(=O)CC(Nc2ccc(N3CCOCC3)cc2)C1=O` (configuration not stated), the Potency is reported as inconclusive: 22.4 µM [activator, partial curve, poor fit].
With `Cc1cccc(N=C2NN=C(c3ccccc3F)CS2)c1C` the Potency was inconclusive: 28.2 µM [activator, partial curve, poor fit].
With `CC(C)(C)OC(=O)NCCCC[C@H](NC(=O)c1nc[nH]c1C(=O)NC(c1ccccc1)c1ccccc1)C(=O)OC(C)(C)C` the Potency was active: 15.8 µM.
In the case of `CCCOc1ccc(C(=O)c2nc3c(n2O)CCCC3)cc1`, the Potency is reported as “inactive”.
With `CN(CCc1ccccc1)C(=O)c1cccc(NC(=O)Cc2cccc(NC(=O)C3CCN(C(=O)C4CCCCC4)CC3)c2)c1` the Potency was inconclusive: 50.1 µM [activator, single point].
For `COC(=O)c1ccccc1S(=O)(=O)NC(=O)c1ccccc1`, the Potency was inconclusive: 2.82 µM [activator, single point].
With `COC(=O)C(Cc1c[nH]c2ccccc12)NC(=O)COc1ccc(Cl)cc1Cl` (configuration not stated) the Potency was inconclusive: 35.5 µM [activator, single point].
With `CC1Nc2ncnc(N3CCc4ccccc4C3)c2N(Cc2ccccc2)C1=O` (configuration not stated) the Potency was inconclusive: 50.1 µM [activator, single point].
For `COC(=O)C1CN(Cc2cn(Cc3ccc(OC)cc3)nn2)CCS(=O)(=O)N1Cc1ccc(Cl)cc1` (configuration not stated), the Potency was inconclusive: 28.2 µM [activator, single point].
With `Cc1ccccc1/C=C1\Oc2ccccc2C1=O` the Potency was “inactive”.
For `CCCCCCCCNC(=O)C1CSCCS(=O)(=O)N1Cc1ccccc1` (configuration not stated), the Potency was “inactive”.
In the case of `CC(C)(C)c1ccc(-c2n[nH]c(=S)n2-c2ccccc2)cc1`, the Potency is reported as “inactive”.
For `CC(/C=C1\SC(=S)N(CCC(=O)Nc2ccc(O)cc2)C1=O)=C\c1ccccc1`, the Potency was inconclusive: 39.8 µM [activator, single point].
With `CC(=O)NC(c1ccccc1)c1cccnc1` (configuration not stated) the Potency was inconclusive: 0.891 µM [activator, full curve, poor fit].
For `Cc1cccc(S(=O)(=O)Nc2nc3ccccc3nc2Nc2cccc(C(=O)O)c2)c1`, the Potency was “inactive”.
With `CCOC(=O)[C@@]12CCCC=C1N(CCc1ccc(Cl)cc1)C(=O)[C@H]2CC(=O)N1CCN(C(=O)c2ccco2)CC1` the Potency was inconclusive: 25.1 µM [activator, single point].
For `O=C(CSc1nnc(-c2ccc3c(c2)OCCO3)o1)N1CCCC1`, the Potency was inconclusive: 10 µM [activator, single point].
With `CN(Cc1ccccc1)C(=O)c1ccc(NC(=O)Cc2ccc(NC(=O)C3CCCN(C(=O)c4ccccc4)C3)cc2)cc1` (configuration not stated) the Potency was inconclusive: 50.1 µM [activator, single point].
With `CCOc1cccc(=O)c2c(C)n(-c3ccc(C(=O)O)cc3)c(C)c12` the Potency was inconclusive: 31.6 µM [activator, single point].
For `CN(C)CCNC(=O)c1ccc(-n2c(-c3ccccc3)cc3c2CCCC3)cc1`, the Potency was “inactive”.
In the case of `N=c1c2c(ccn1CCCCc1ccccc1)Oc1ccc3ccccc3c1C2c1ccccc1` (configuration not stated), the Potency is reported as inconclusive: 17.8 µM [activator, partial curve, poor fit].
For `Brc1cc(Br)c2ncnc(N3CCCCC3)c2c1`, the Potency was “inactive”.
For `Cc1cc2cc(CNS(=O)(=O)c3ccccc3)ccc2n1C`, the Potency was inconclusive: 17.8 µM [activator, partial curve].
For `COc1ccc2c(c1)C1=NN(/C(C)=C\C(C)=O)C(c3ccccc3)C1CC2` (configuration not stated), the Potency was inconclusive: 14.1 µM [activator, partial curve, poor fit].
